Here are results for 42 compounds from PubChem BioAssay (NCI).

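Grown in 96-well plates, cells were treated for 48 hours with each compound at five concentrations. Insufficient inhibition: endpoint recorded as highest concentration tested. Abbreviation: GI50, concentration required for 50% inhibition of growth. The concentration for full growth arrest is given as TGI.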 Square brackets hold non-standard residues; d marks the D form. Peptide text beside a SMILES is read from it. * marks the point of attachment. Bn2Val = CC(C)[C@@H](C(=O)*)N(Cc1ccccc1)Cc1ccccc1; NH(4-F-benzyl) = Fc1ccc(CN*)cc1; NMeF = CN[CH](Cc1ccccc1)C(=O)O; NMeV = CN[CH](C(=O)O)C(C)C; dNMeA = CN[C@H](C)C(=O)O; Boc = CC(C)(C)OC(=O)* Where only a bound is given, the exact number is not on record here.

For this experiment, the system named is NCI-H322M lung. Nature of the experiment: NCI anticancer screen, dose series, 48 h.
With `CCOC(=O)c1sc2nc(SC)nc(Nc3ccc4c(c3)OCO4)c2c1N`, the TGI was over 100 µM.
Still for that read-out and setting: the value for `Cn1cnc2[nH]c(=O)[nH]c(=S)c21` was over 100 µM.
The same measure, in the same setting: the value for `Cc1c(C)c(S(=O)(=O)N(CCCCCCN)OCCCN)c(C)c2c1OC(C)(C)CC2` was 19.1 µM.
For `O=C(/C=C/c1cccc(O)c1)c1cccc(-n2cc(-c3ccc(Cl)cc3)[nH]c2=O)c1`, the GI50 is 2.52 µM and the TGI came to 10.9 µM.
The compound `CC(C)C(NC(=O)OC(C)(C)C)C(=O)N(C)C(Cc1ccccc1)C(=O)N(C)C(C(=O)N(C)C(C(=O)O)C(C)C)C(C)C` (centres undefined) (Boc-V[NMeF][NMeV][NMeV]-OH; configuration not given here) yielded a TGI of over 100 µM.
The same measure, in the same setting: in the case of `C/C(O)=c1\cc(C#N)c(=C(C#N)C#N)nc1C` it was over 100 µM; in that of `COC(=O)c1c(O)c2c(c3c1OC(C)(C)CC3)OC(C)(C)CC2`, 68.9 µM.
`CCOC(=O)C1=CC(C)(C(=O)OCC)Nc2c(nc(SC)[nH]c2=O)N1` (centres undefined) showed a TGI of over 10 µM.
`COC(=O)C(=Cc1ccccc1[N+](=O)[O-])C(=O)OC`: the GI50 is 11.9 µM and the TGI was 24.3 µM.
`COC(=O)C(C(=O)C(=O)Nc1nc(=S)[nH][nH]1)c1csc(N)n1` (centres undefined) came in with a TGI of over 100 µM.
For `N#Cc1c(O)c(C=Nc2ccc(Cl)cc2)c(=O)n2c1[nH]c1ccccc12`, the TGI is over 100 µM.
Compound `CC(C)[C@H](NC(=O)[C@H](C(C)C)N(Cc1ccccc1)Cc1ccccc1)C(=O)N(C)[C@H](C(=O)N1CCC[C@H]1C(=O)N(C)[C@H](C)C(=O)NCc1ccc(F)cc1)C(C)C` (Bn2Val-V[NMeV]P[dNMeA]-{NH(4-F-benzyl)}) showed a TGI of over 67.3 µM.
Same read-out and setting: the value for `N#CC1=C(Cl)NC(Cl)=C(C#N)C1c1ccc(Cl)cc1` was 98.2 µM.
Consider `COc1ccc2c(c1)SC1=NNC(Cl)C(=O)N12` (centres undefined), for which the GI50 is 19.9 µM and the TGI stood at 38.7 µM.
In turn, `COC(=O)C1=C(OC(=O)/C(=C/c2ccccc2)c2ccccc2)C(C(=O)OC)[C@@]2(O)[C@@H](C(=O)OC)[C@H](C)C[C@@H]1[C@@H]2C(=O)OC` (some centres undefined) returned a TGI of over 100 µM.
In the case of `CCSc1nc2[nH]c(=S)[nH]c(=S)c2c(-c2ccc(OC)c(OC)c2)c1C#N`, the GI50 is over 50 µM and the TGI was over 50 µM.
With `CC(C)Sc1nncc(/C(N)=N/O)n1`, the TGI is over 100 µM.
Same read-out and setting: in the case of `CCOC(=O)C1=NC(c2ccccc2)(c2ccccc2)OC1=C(Cl)Cl` it was over 100 µM.
On to `CCCCCCC[CH2][Sn]([Cl])([Cl])[CH2]CCCCCCC`, for which the GI50 was 11.6 µM and the TGI amounted to 23.9 µM.
`CC(=O)Oc1cc2oc(=O)cc(C)c2cc1OC(C)=O` had a TGI of over 100 µM.
As to `CC[C@H](Nc1cc(C)nc(N)n1)c1nc2cccc(NCc3ccc(C(=O)NO)cc3)c2c(=O)n1-c1ccccc1`, the GI50 is 2.92 µM and the TGI is 11.4 µM.
`CCc1nc(N)nc(N)c1-c1ccc2c(c1)nnn2CCc1ccccc1` returned a TGI of over 72.5 µM.
Still for that read-out and setting: in the case of `CN(C)CCCNc1c2c(nc3ccc(Cl)cc13)CCCC2` it was 32.1 µM.
Still for that read-out and setting: in the case of `O=C(CC(=O)Nc1ccc(C(=O)O)cc1)Nc1ccc(C(=O)O)cc1` it was over 100 µM; in that of `O=C(O)c1ccc(C=C2Sc3ccccc3S2)cc1`, over 100 µM.
Still for that read-out and setting: in the case of `Cc1nc2nn[nH]n2c(=O)c1CCO` it was over 100 µM; in that of `CCOC(=O)C(NC(=O)c1ccccc1)(Nc1cc(C)on1)C(F)(F)F` (centres undefined), over 100 µM.
Consider `C=CCSSC1N=CNc2nc[nH]c21` (centres undefined), for which the GI50 is 6.18 µM and the TGI is over 100 µM.
Taken in the same sequence, the figures for `Cc1cc2nc3c4cc(C=O)ccc4n(CCN(C)C)c3nc2cc1C` were 1.62 µM and 6.24 µM.
For `CCCCc1[nH]ccc2c(C)c3nc4ccccc4c3cc12`, the TGI was found to be 14.7 µM.
In the case of `C=C1C(=O)c2sccc2C(c2ccc(OC)c(OC)c2)C1COC(C)=O` (centres undefined), the GI50 is 17.3 µM and the TGI was 40.4 µM.
Taken in the same sequence, the figures for `O=C1OC(c2cccc(C(F)(F)F)c2)(c2cccc(C(F)(F)F)c2)c2ccc3ccccc3c21` were over 100 µM and over 100 µM.
For the compound `CC(=O)Oc1ccc(/C=C/C(=O)NCC(NC(=O)/C=C/c2ccc(OC(C)=O)c(OC(C)=O)c2)C(=O)O)cc1OC(C)=O` (centres undefined), the TGI is over 100 µM.
As to `NC1CCCCC1N.O=NN1CCCCCC1(P(=O)([O-])[O-])P(=O)([O-])[O-].[Na+].[Pt+2]`, the GI50 was over 100 µM and the TGI is over 100 µM.
The compound `O=c1[nH]cnc2[nH]cc(CN3CCCCC3)c12` yielded a TGI of over 100 µM.
On the same count and under the same terms, in the case of `Cc1cc(CN2CCCCC2)c(O)c(CN2CCCCC2)c1` it was over 100 µM.
The compound `O=C(O)C(C(C(=O)O)P(=O)(O)O)P(=O)(O)O` (centres undefined) yielded a TGI of over 100 µM.
For the compound `O=C(Nc1ccc(OCc2nnc(-c3ccc(Cl)cc3)o2)c(F)c1)Nc1ccc(Cl)c(Cl)c1`, the GI50 is 11.4 µM and the TGI was over 100 µM.
For the compound `COc1ccc(CN=C2N/C(=C\c3ccccc3Cl)C(=O)N2C)cc1`, the TGI is over 100 µM.
On the same count and under the same terms, the value for `CCCCCC(=O)n1[nH]c(=O)n(-c2ccc(OC)cc2)c1=O` was over 100 µM; that for `Cc1cc2c(cc1C)[n+]([O-])c(NCCCN(C)C)c(C#N)[n+]2[O-]` was over 100 µM.
Same read-out and setting: in the case of `COc1cc(C2C(C(=O)O)=C(CO)Oc3cc4c(cc32)OCO4)cc(OC)c1OC` (centres undefined) it was over 100 µM.
